We go through one molecule from patent US20150231242A1, “COMBINATION OF CD37 ANTIBODIES WITH BENDAMUSTINE” (Boehringer Ingelheim International GmbH, priority 2012, published 2015).

The term TGI denotes how far tumour growth fell short of that in controls. A low value points to little slowing of growth.

The subject of series [1] is Raji Burkitt lymphoma cells. Briefly: Apoptosis assay (Annexin V/PI staining, FACS) on Raji cells. Format: cell-based, human. The following applies: 48 h, A2 10 μg/ml; for % apoptotic cells: Annexin V positive cells, mean of three experiments.
The subject of series [2] is DoHH2 tumor cells. The series is described as follows: DoHH2 human xenograft tumor model (Example 2). Format: in vivo, CB-17 SCID mice. The following applies: A2 10 mg/kg twice weekly, bendamustine 10 mg/kg twice weekly ip; present-tense example. In general terms: In xenograft studies the graft and the host belong to different species.
The conditions of series [3]: mouse, in vivo.
Series [4] has as its system Ramos Burkitt lymphoma cells. Briefly: Apoptosis assay (Annexin V/PI staining, FACS) on Ramos cells. The class given is cell-based, human. The following applies: 48 h, A2 10 μg/ml; for % apoptotic cells: Annexin V positive cells, mean of three experiments.
Series [5] concerns DOHH2 tumors (human follicular lymphoma). Briefly: Efficacy in subcutaneous DOHH2 human follicular lymphoma xenograft (Example 3). Format: in vivo, C.B-17 scid mice. Conditions: day 16; for anti-tumor effect in words: DOHH2 tumors; for TGI: median, antibody A2 10 mg/kg i.p. twice weekly, bendamustine 20 mg/kg i.p. two injections.

Where “and” joins values, the source holds several entries; their conditions need not be identical. Identical values can stand only once.

B1: A2: mouse-human chimeric Fc-engineered IgG1 CD37 antibody; heavy chain SEQ ID NO:5, light chain SEQ ID NO:6 (antibody)
heavy: AVQLQQSGPELEKPGASVKISCKASGYSFTGYNMNWVKQNNGKSLEWIGNIDPYYGGTTYNRKFKGKATLTVDKSSSTAYMQLKSLTSEDSAVYYCARSVGPMDYWGQGTSVTVSSASTKGPSVFPLAPSSKSTSGGTAALGCLVKDYFPEPVTVSWNSGALTSGVHTFPAVLQSSGLYSLSSVVTVPSSSLGTQTYICNVNHKPSNTKVDKRV[human IgG1 Fc with changes omitted here]
light: DIQMTQSPASLSASVGETVTITCRTSENVYSYLAWYQQKQGKSPQLLVSFAKTLAEGVPSRFSGSGSGTQFSLKISSLQPEDSGSYFCQHHSDNPWTFGGGTELEIKRTVAAPSVFIFPPSDEQLKSGTASVVCLLNNFYPREAKVQWKVDNALQSGNSQESVTEQDSKDSTYSLSSTLTLSKADYEKHKVYACEVTHQGLSSPVTKSFNRGEC
Consider B1, for which the “apoptosis induction, mAb A2 alone” value is given as 12% in series [1] (no bendamustine) and 9% in series [4] (no bendamustine). The “% apoptotic cells” value in series [1] (bendamustine 200 μM column) is reported as 12%; in series [1] (bendamustine 400 μM column) it was 12%; in series [4] (bendamustine 100 μM column), 9%; in series [4] (bendamustine 400 μM column), 9%. Moreover, the “anti-tumor effect in words” value is “significant anti-tumor effect” in series [2], “significantly inhibited growth” in series [5] (listed as Antibody A2) and “growth inhibited” in series [5] (listed as antibody A2). Moreover, the tolerability in words entry in series [3] is “well tolerated”. For the same molecule, the “CR (complete tumor regression)” value in series [5] (7 mice per group) was 0 x/7. The “PR (partial tumor regression)” value in series [5] (7 mice per group) is on record as 0 x/7. Moreover, the TGI was 73% in series [5] (listed as Antibody A2); 73% and 72% in series [5] (listed as antibody A2).
